In the supplement of paper PMC8728848:
Some of the results follow.

Columns and labels:
Assay in all cases: glycan array binding signal (z-score within array); higher = stronger binding
Conditions in all cases: glycan notation: IUPAC condensed, linker removed
Gal(a1-3)Gal(b1-4)GlcNAc = biological target: Gal(a1-3)Gal(b1-4)GlcNAc
Method in brief: (§1)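 Arrays were curated from the Consortium for Functional Glycomics database, 3228 in total, and kept only where the protein sequence was available. Binding is expressed as a within-array Z-score. This score was averaged across arrays of the same protein sequence at different concentrations or buffers and across linkers, and negative values can be read as non-binding.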

[1] = biological target: Gal(a1-3)Gal(b1-4)GlcNAc(b1-2)Man
Method in brief: as §1

[2] = biological target: Gal(a1-3)Gal(b1-4)GlcNAc(b1-2)Man(a1-3)[Gal(a1-3)Gal(b1-4)GlcNAc(b1-2)Man(a1-6)]Man(b1-4)GlcNAc(b1-4)GlcNAc
Method in brief: as §1

[3] = biological target: Gal(a1-3)Gal(b1-4)GlcNAc(b1-3)GalNAc
Method in brief: as §1

[4] = biological target: Gal(a1-3)Gal(b1-4)GlcNAc(b1-6)GalNAc
Method in brief: as §1

[5] = biological target: Gal(a1-3)Gal(b1-4)[Fuc(a1-3)]GlcNAc
Method in brief: as §1

[6] = biological target: Gal(a1-3)Gal(b1-4)[Fuc(a1-3)]GlcNAc(b1-2)Man(a1-3)[Gal(a1-3)Gal(b1-4)[Fuc(a1-3)]GlcNAc(b1-2)Man(a1-6)]Man(b1-4)GlcNAc(b1-4)GlcNAc
Method in brief: as §1

Gal(a1-3)GalNAc = biological target: Gal(a1-3)GalNAc
Method in brief: as §1

[7] = biological target: Gal(a1-3)[Gal(a1-4)]Gal(b1-4)GlcNAc
Method in brief: as §1

[8] = biological target: Gal(a1-4)Gal(b1-3)GlcNAc(b1-2)Man(a1-3)[Gal(a1-4)Gal(b1-3)GlcNAc(b1-2)Man(a1-6)]Man(b1-4)GlcNAc(b1-4)GlcNAc
Method in brief: as §1

Gal(a1-4)Gal(b1-4)Glc = biological target: Gal(a1-4)Gal(b1-4)Glc
Method in brief: as §1

Gal(a1-4)Gal(b1-4)GlcNAc = biological target: Gal(a1-4)Gal(b1-4)GlcNAc
Method in brief: as §1

[9] = biological target: Gal(a1-4)Gal(b1-4)GlcNAc(b1-2)Man(a1-3)[Gal(a1-4)Gal(b1-4)GlcNAc(b1-2)Man(a1-6)]Man(b1-4)GlcNAc(b1-4)GlcNAc
Method in brief: as §1

[10] = biological target: Gal(a1-4)Gal(b1-4)GlcNAc(b1-3)Gal(b1-4)Glc
Method in brief: as §1

Gal(a1-4)GlcNAc = biological target: Gal(a1-4)GlcNAc
Method in brief: as §1

Gal(a1-6)Glc = biological target: Gal(a1-6)Glc
Method in brief: as §1

Gal(b1-2)Gal = biological target: Gal(b1-2)Gal
Method in brief: as §1

Gal(b1-3)Gal = biological target: Gal(b1-3)Gal
Method in brief: as §1

Gal(b1-3)Gal(b1-4)GlcNAc = biological target: Gal(b1-3)Gal(b1-4)GlcNAc
Method in brief: as §1

Gal(b1-3)GalNAc = biological target: Gal(b1-3)GalNAc
Method in brief: as §1

[11] = biological target: Gal(b1-3)GalNAc(a1-3)[Fuc(a1-2)]Gal(b1-4)Glc
Method in brief: as §1

[12] = biological target: Gal(b1-3)GalNAc(a1-3)[Fuc(a1-2)]Gal(b1-4)GlcNAc
Method in brief: as §1

Gal(b1-3)GalNAc(b1-3)Gal = biological target: Gal(b1-3)GalNAc(b1-3)Gal
Method in brief: as §1

[13] = biological target: Gal(b1-3)GalNAc(b1-3)Gal(a1-4)Gal(b1-4)Glc
Method in brief: as §1

[14] = biological target: Gal(b1-3)GalNAc(b1-4)Gal(b1-4)Glc
Method in brief: as §1

[15] = biological target: Gal(b1-3)GalNAc(b1-4)[Neu5Ac(a2-3)]Gal(b1-4)Glc
Method in brief: as §1

Gal(b1-3)GlcNAc = biological target: Gal(b1-3)GlcNAc
Method in brief: as §1

[16] = biological target: Gal(b1-3)GlcNAc(a1-3)Gal(b1-4)GlcNAc
Method in brief: as §1

[17] = biological target: Gal(b1-3)GlcNAc(a1-6)Gal(b1-4)GlcNAc
Method in brief: as §1

Gal(b1-3)GlcNAc(b1-2)Man = biological target: Gal(b1-3)GlcNAc(b1-2)Man
Method in brief: as §1

[18] = biological target: Gal(b1-3)GlcNAc(b1-2)Man(a1-3)[Gal(b1-3)GlcNAc(b1-2)Man(a1-6)]Man(b1-4)GlcNAc(b1-4)GlcNAc
Method in brief: as §1

[19] = biological target: Gal(b1-3)GlcNAc(b1-2)Man(a1-3)[Gal(b1-3)GlcNAc(b1-2)Man(a1-6)]Man(b1-4)GlcNAc(b1-4)[Fuc(a1-6)]GlcNAc
Method in brief: as §1

[20] = biological target: Gal(b1-3)GlcNAc(b1-2)Man(a1-3)[GlcNAc(b1-4)][Gal(b1-3)GlcNAc(b1-2)Man(a1-6)]Man(b1-4)GlcNAc(b1-4)GlcNAc
Method in brief: as §1

[21] = biological target: Gal(b1-3)GlcNAc(b1-2)[Gal(b1-3)GlcNAc(b1-6)]Man(a1-6)[Gal(b1-3)GlcNAc(b1-2)Man(a1-3)]Man(b1-4)GlcNAc(b1-4)GlcNAc
Method in brief: as §1

[22] = biological target: Gal(b1-3)GlcNAc(b1-3)Gal(b1-3)GlcNAc
Method in brief: as §1

[23] = biological target: Gal(b1-3)GlcNAc(b1-3)Gal(b1-4)Glc
Method in brief: as §1

[24] = biological target: Gal(b1-3)GlcNAc(b1-3)Gal(b1-4)GlcNAc
Method in brief: as §1

[25] = biological target: Gal(b1-3)GlcNAc(b1-3)Gal(b1-4)GlcNAc(b1-2)Man(a1-3)[Gal(b1-3)GlcNAc(b1-3)Gal(b1-4)GlcNAc(b1-2)Man(a1-6)]Man(b1-4)GlcNAc(b1-4)GlcNAc
Method in brief: as §1

[26] = biological target: Gal(b1-3)GlcNAc(b1-3)Gal(b1-4)GlcNAc(b1-2)[Gal(b1-3)GlcNAc(b1-3)Gal(b1-4)GlcNAc(b1-6)]Man(a1-6)[Gal(b1-3)GlcNAc(b1-3)Gal(b1-4)GlcNAc(b1-2)Man(a1-3)]Man(b1-4)GlcNAc(b1-4)[Fuc(a1-6)]GlcNAc
Method in brief: as §1

[27] = biological target: Gal(b1-3)GlcNAc(b1-3)Gal(b1-4)GlcNAc(b1-3)Gal(b1-4)GlcNAc(b1-2)[Gal(b1-3)GlcNAc(b1-3)Gal(b1-4)GlcNAc(b1-3)Gal(b1-4)GlcNAc(b1-6)]Man(a1-6)[Gal(b1-3)GlcNAc(b1-3)Gal(b1-4)GlcNAc(b1-3)Gal(b1-4)GlcNAc(b1-2)Man(a1-3)]Man(b1-4)GlcNAc(b1-4)[Fuc(a1-6)]GlcNAc
Method in brief: as §1

[28] = biological target: Gal(b1-3)GlcNAc(b1-3)Gal(b1-4)GlcNAc(b1-6)[Gal(b1-3)GlcNAc(b1-3)]Gal(b1-4)Glc
Method in brief: as §1

[29] = biological target: Gal(b1-3)GlcNAc(b1-3)Gal(b1-4)[Fuc(a1-3)]GlcNAc
Method in brief: as §1

[30] = biological target: Gal(b1-3)GlcNAc(b1-3)Gal(b1-4)[Fuc(a1-3)]GlcNAc(b1-6)[Gal(b1-3)GlcNAc(b1-3)]Gal(b1-4)Glc
Method in brief: as §1

[31] = biological target: Gal(b1-3)GlcNAc(b1-3)GalNAc
Method in brief: as §1

[32] = biological target: Gal(b1-3)GlcNAc(b1-6)Gal(b1-4)GlcNAc
Method in brief: as §1

B1: EPL1 (Trichoderma atroviride), A0PCX2 (protein)
chain: MQLSNLFKLALFTAAVSADTVSYDTGYDDASRSLTVVSCSDGTNGLITRYHWQTQGQIPRFPYIGGAQAVAGWNSPNCGTCWKLTYSGKTIYVLAIDHTAAGFNIGLDAMNALTNGNAVALGRVSATASQVAVSNCGL
glycan array binding signal (z-score) (Gal(a1-3)Gal(b1-4)GlcNAc): -0.381 | glycan array binding signal (z-score) [1]: -0.522 | glycan array binding signal (z-score) [2]: 0.847 | glycan array binding signal (z-score) [3]: 0.101 | glycan array binding signal (z-score) [4]: 0.045 | glycan array binding signal (z-score) [5]: -0.262 | glycan array binding signal (z-score) [6]: 0.929 | glycan array binding signal (z-score) (Gal(a1-3)GalNAc): -0.034 | glycan array binding signal (z-score) [7]: 0.643 | glycan array binding signal (z-score) [8]: -0.259 | glycan array binding signal (z-score) (Gal(a1-4)Gal(b1-4)Glc): 0.212 | glycan array binding signal (z-score) (Gal(a1-4)Gal(b1-4)GlcNAc): 0.34 | glycan array binding signal (z-score) [9]: -0.178 | glycan array binding signal (z-score) [10]: -0.378 | glycan array binding signal (z-score) (Gal(a1-4)GlcNAc): -0.267 | glycan array binding signal (z-score) (Gal(a1-6)Glc): 0.163 | glycan array binding signal (z-score) (Gal(b1-2)Gal): -0.342 | glycan array binding signal (z-score) (Gal(b1-3)Gal): -0.661 | glycan array binding signal (z-score) (Gal(b1-3)Gal(b1-4)GlcNAc): -0.393 | glycan array binding signal (z-score) (Gal(b1-3)GalNAc): 0 | glycan array binding signal (z-score) [11]: 0.12 | glycan array binding signal (z-score) [12]: -0.552 | glycan array binding signal (z-score) (Gal(b1-3)GalNAc(b1-3)Gal): -0.342 | glycan array binding signal (z-score) [13]: -0.659 | glycan array binding signal (z-score) [14]: -0.263 | glycan array binding signal (z-score) [15]: 0.479 | glycan array binding signal (z-score) (Gal(b1-3)GlcNAc): -0.355 | glycan array binding signal (z-score) [16]: -0.079 | glycan array binding signal (z-score) [17]: -0.153 | glycan array binding signal (z-score) (Gal(b1-3)GlcNAc(b1-2)Man): -0.026 | glycan array binding signal (z-score) [18]: 0.242 | glycan array binding signal (z-score) [19]: -0.255 | glycan array binding signal (z-score) [20]: -0.356 | glycan array binding signal (z-score) [21]: -0.036 | glycan array binding signal (z-score) [22]: -0.17 | glycan array binding signal (z-score) [23]: 1.82 | glycan array binding signal (z-score) [24]: -0.163 | glycan array binding signal (z-score) [25]: 0.737 | glycan array binding signal (z-score) [26]: 0.678 | glycan array binding signal (z-score) [27]: 0.216 | glycan array binding signal (z-score) [28]: -0.541 | glycan array binding signal (z-score) [29]: 0.654 | glycan array binding signal (z-score) [30]: -0.506 | glycan array binding signal (z-score) [31]: -0.677 | glycan array binding signal (z-score) [32]: 0.204
